62 molecules from the supplement of paper PMC9446081 can be followed below.

The whole screen tested about 39,000 compounds, of which about 220 (0.56%) showed activity. The list shows a part of the results.
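Note: static incubation at 37 °C against the wild-type strain, values averaged over two biological replicates.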

This test relates to Escherichia coli K-12 BW25113. The test can be described thus: relative growth (OD600 normalised to plate interquartile mean) (fraction); higher = less growth inhibition, active = 0.2 or less. The note with it: 50 µM; LB; incubation time: overnight (16-24 h).
With `CN1CCN(CC#N)C(=O)C12CCN(S(=O)(=O)C1CC1)CC2`, the relative growth was inactive: 1.04.
Turning to `C[C@@H]1CN([C@H](C)CO)C(=O)CCCn2nncc2CO[C@@H]1CN(C)S(=O)(=O)c1ccc2ccccc2c1`, the relative growth was inactive: 1.01.
For the molecule `COC(=O)c1c(CC[C@@H](CO)NC(=O)Nc2ccc(OC)cc2)oc(C(=O)Cc2ccccc2)c1C(=O)OC`, the relative growth was inactive: 1.01.
Consider `C[C@H]1CN([C@@H](C)CO)C(=O)c2cc(NS(=O)(=O)c3cccs3)ccc2O[C@H]1CN(C)S(=O)(=O)c1cn(C)cn1`, for which the relative growth was inactive: 1.01.
For `C[C@H](CO)N1C[C@H](C)[C@@H](CN(C)S(=O)(=O)c2ccc(F)cc2)Oc2cc(C3=CCCC3)ccc2S1(=O)=O`, the relative growth is inactive: 1.05.
Under `COc1ccc(NC(=O)Nc2ccc3c(c2)C(=O)N([C@H](C)CO)C[C@H](C)[C@H](CN(C)S(=O)(=O)c2ccc(OC)cc2)OCCCC[C@H](C)O3)cc1` stands inactive: 1.06.
Take `CO[C@@H]1CN(C)C(=O)c2ccc(NC(=O)c3cnccn3)cc2OC[C@@H](C)N(C(=O)c2cnccn2)C[C@H]1C`: the relative growth was inactive: 1.01.
Under `C[N+](C)(C)CC(=O)O` stands inactive: 0.983.
With `Cc1ccc(S(=O)(=O)Nc2ccc3c(c2)C(=O)N([C@H](C)CO)C[C@@H](C)[C@@H](CN(C)C(=O)Nc2cccc4ccccc24)O3)cc1` the figure was inactive: 1.03; with `O=C(O)c1ccccc1C(=O)Nc1ccc(S(=O)(=O)Nc2nccs2)cc1`, inactive: 1.04; with `C[C@H]1CN([C@@H](C)CO)C(=O)c2cc(NC(=O)Nc3ccccc3)ccc2O[C@@H]1CN(C)S(C)(=O)=O`, inactive: 0.994.
`C[C@@H]1CN([C@@H](C)CO)C(=O)Cc2cc(NC(=O)CCN3CCOCC3)ccc2O[C@H]1CN(C)CC1CCCCC1`: the relative growth was inactive: 0.956.
For the molecule `C[C@@H]1CN([C@@H](C)CO)C(=O)c2cc(NC(=O)Nc3ccc(C(F)(F)F)cc3)ccc2O[C@@H]1CN(C)Cc1ccc(C(F)(F)F)cc1`, the relative growth was inactive: 1.05.
Take `C[C@@H]1CN([C@@H](C)CO)C(=O)c2cc(NC(=O)CCCN(C)C)ccc2O[C@@H]1CN(C)Cc1ccc2c(c1)OCO2`: the relative growth was inactive: 0.859.
For `O=C(/C=C/c1cccc(-c2cn(CC[C@@H]3OC(=O)[C@H](Cc4ccccc4)N4CC5=CC(=O)[C@H](C6CC6)[C@H]5[C@H]34)nn2)c1)NO`, the relative growth was inactive: 1.
Turning to `C[C@H]1CCCCO[C@H](CN(C)C(=O)c2ccccc2)[C@@H](C)CN([C@@H](C)CO)C(=O)c2cc(NS(=O)(=O)c3ccc(Cl)cc3)ccc2O1`, the relative growth was inactive: 0.999.
Take `CC1=C(C)C(=O)C(CCCCCCCCCC[P+](c2ccccc2)(c2ccccc2)c2ccccc2)=CC1=O`: the relative growth was inactive: 0.308.
For `COC(=O)C1=C(C)NC(C)=C(C(=O)OCC(C)C)[C@@H]1c1ccccc1[N+](=O)[O-]`, the relative growth was inactive: 0.983.
For the molecule `NC1CCN(C(=O)N2CCCC2)CC1`, the relative growth was inactive: 0.966.
With `Cc1noc(C)c1S(=O)(=O)Nc1cccc2c1O[C@H](CN(C)Cc1ccc(C(=O)O)cc1)[C@@H](C)CN([C@@H](C)CO)C2=O`, the relative growth is inactive: 1.01.
`C[C@H](CO)N1C[C@H](C)[C@@H](CN(C)C(=O)Nc2cccc3ccccc23)OCCCC[C@H](C)Oc2ccc(NC(=O)NC3CCCCC3)cc2C1=O`: the relative growth was inactive: 0.987.
With `Cc1noc(C)c1S(=O)(=O)Nc1ccc2c(c1)C(=O)N([C@H](C)CO)C[C@@H](C)[C@H](CN(C)C)OCCCC[C@@H](C)O2`, the relative growth was inactive: 1.01.
As to `C[C@H]1CN([C@@H](C)CO)C(=O)CCCn2cc(nn2)CO[C@@H]1CN(C)Cc1ccc2c(c1)OCCN2C`, the relative growth was inactive: 0.991.
Take `COc1cccc(NC(=O)C[C@@H]2CC[C@H]3[C@H](COc4ccc(NC(=O)C5CCOCC5)cc4C(=O)N3C)O2)c1`: the relative growth was inactive: 1.04.
In the case of `C[C@@H]1CN([C@@H](C)CO)C(=O)c2cc(NC(=O)c3ccncc3)ccc2O[C@H]1CN(C)S(=O)(=O)c1cccs1`, the relative growth was inactive: 0.991.
With `O=C(CN1CCOCC1)NCC[C@@H]1CC[C@H](NS(=O)(=O)c2ccc(Cl)cc2)[C@H](CO)O1`, the relative growth is inactive: 1.02.
As for `C[C@@H]1CCCCO[C@H](CN(C)C(=O)Nc2ccc3c(c2)OCO3)[C@@H](C)CN([C@@H](C)CO)C(=O)c2cc(NS(=O)(=O)c3cccs3)ccc2O1`, the relative growth was inactive: 1.
On to `CCC(=O)N(C)C[C@H]1Oc2ncc(C#C[C@H](C)O)cc2C(=O)N([C@H](C)CO)C[C@H]1C`, for which the relative growth was inactive: 0.983.
With `C[C@H]1CCCCO[C@H](CN(C)Cc2ccc(C(=O)O)cc2)[C@@H](C)CN([C@@H](C)CO)C(=O)c2cc(NC(=O)Nc3ccc(C(F)(F)F)cc3)ccc2O1` the figure was inactive: 0.931; with `Cc1ccc(S(=O)(=O)N(C)C[C@@H]2Oc3ncc(C#CCN(C)C)cc3C(=O)N([C@H](C)CO)C[C@@H]2C)cc1`, inactive: 0.991.
On to `C[C@H](NC(=O)C[C@H]1C[C@H]2c3cc(NC(=O)Nc4ccc(C(F)(F)F)cc4)ccc3O[C@H]2[C@@H](CO)O1)c1ccccc1`, for which the relative growth was inactive: 1.
With `Nc1ccc(-n2cc(CCC(=O)NO)nn2)cc1`, the relative growth was inactive: 0.99.
Take `O=C(NCCN1CCCC1)[C@@H]1N[C@@H]2c3ccc(-c4ccccc4)c(=O)n3C[C@@H]2[C@H]1CO`: the relative growth is inactive: 0.992.
Take `OCCN(CCO)c1nc(N2CCCCC2)c2nc(N(CCO)CCO)nc(N3CCCCC3)c2n1`: the relative growth was inactive: 1.14.
Take `C[C@H](CO)N1C[C@H](C)[C@H](CN(C)S(=O)(=O)c2ccc(F)cc2)Oc2ncc(-c3ccccc3)cc2C1=O`: the relative growth is inactive: 0.995.
In the case of `Nc1nc(=O)c2ncn(COC(CO)CO)c2[nH]1`, the relative growth is inactive: 0.996.
With `Cc1noc(C)c1NC(=O)N(C)C[C@H]1Oc2c(NC(=O)c3ccncc3)cccc2C(=O)N([C@H](C)CO)C[C@H]1C` the figure was inactive: 1.01; with `C[C@@H]1CN([C@@H](C)CO)C(=O)c2cccc(NC(=O)Nc3ccccc3)c2O[C@H]1CN(C)C(=O)Nc1cccc2ccccc12`, inactive: 0.984; with `CCCNC(C)(C)COC(=O)c1ccccc1.Cl`, inactive: 1.03.
Consider `NC1(C(=O)O)CCCC1`, for which the relative growth is inactive: 1.
With `CCC(=O)Nc1nn2c(C)nnc2s1`, the relative growth is inactive: 1.02.
As for `CN(C)[C@@H]1C(=O)[C@@H](C(=O)NCNCCCC[C@H](N)C(=O)O)C(=O)[C@@]2(O)C(=O)[C@@H]3C(=O)c4c(O)cccc4[C@@](C)(O)[C@H]3C[C@@H]12`, the relative growth is inactive: 0.977.
`C[C@@H]1CCCCO[C@@H](CN(C)Cc2ccccc2)[C@@H](C)CN([C@H](C)CO)C(=O)c2cc(NC(=O)Nc3ccc(F)cc3)ccc2O1`: the relative growth was inactive: 0.948.
Regarding `COc1ccc(NC(=O)N(C)C[C@@H]2Oc3ncc(-c4cccc(C(F)(F)F)c4)cc3C(=O)N([C@H](C)CO)C[C@@H]2C)cc1`, the relative growth was inactive: 0.941.
Take `C[C@@H]1CN([C@@H](C)CO)C(=O)c2c(c3ccccc3n2C)-c2ccccc2CO[C@H]1CN(C)Cc1ccc(F)cc1`: the relative growth is inactive: 0.983.
`C[C@@H]1CCCCO[C@@H](CN(C)S(=O)(=O)c2cn(C)cn2)[C@H](C)CN([C@H](C)CO)C(=O)c2cc(NS(=O)(=O)c3cccs3)ccc2O1`: the relative growth was inactive: 0.93.
With `C[C@@H]1CN([C@H](C)CO)C(=O)c2cc(NC(=O)c3ccncc3)ccc2O[C@@H](C)CCCCO[C@H]1CN(C)S(=O)(=O)c1cn(C)cn1` the figure was inactive: 0.965; with `Cc1ccc(S(=O)(=O)Nc2ccc3c(c2)CC(=O)N([C@H](C)CO)C[C@@H](C)[C@H](CN(C)S(=O)(=O)c2ccc(F)cc2)O3)cc1`, inactive: 0.935.
Take `C[C@H]1CN([C@@H](C)CO)S(=O)(=O)c2ccc(C3=CCCC3)cc2O[C@@H]1CN(C)C(=O)C1CCOCC1`: the relative growth was inactive: 0.956.
For the molecule `C[C@H](N)CCC(=O)NCS(=O)(=O)O`, the relative growth was inactive: 1.03.
As for `COc1ccc(CN(C)C[C@H]2OCCCC[C@@H](C)Oc3ccc(NC(=O)c4ccncc4)cc3C(=O)N([C@H](C)CO)C[C@H]2C)cc1`, the relative growth was inactive: 1.
With `CCO[C@@H]1OC(C(=O)N2CCOCC2)=C[C@H](C2CC2)[C@H]1CCCOC(=O)NCCCCCC(=O)NO`, the relative growth was inactive: 0.984.
Regarding `CS(=O)(=O)N1C[C@H]2CN(C(=O)c3cnccn3)C[C@@H]2C1`, the relative growth is inactive: 0.982.
Turning to `C[C@H](CO)N1C[C@H](C)[C@H](CN(C)C(=O)NC2CCCCC2)Oc2c(NC(=O)C3CC3)cccc2C1=O`, the relative growth was inactive: 1.02.
For the molecule `NCc1cccc(N2CCCC2)c1`, the relative growth is inactive: 1.01.
Under `O=C(C[C@H]1CC[C@@H]2[C@H](COC[C@@H](O)CN2S(=O)(=O)c2ccccc2)O1)NCc1ccc2c(c1)OCO2` stands inactive: 0.989; under `CN1C(=O)c2cc(NC(=O)C3CCOCC3)ccc2OC[C@@H]2O[C@@H](CC(=O)NCc3ccc4c(c3)OCO4)CC[C@H]21`, inactive: 0.983.
Regarding `Cc1noc(C)c1S(=O)(=O)Nc1ccc2c(c1)C(=O)N([C@@H](C)CO)C[C@H](C)[C@H](CN(C)S(=O)(=O)c1cn(C)cn1)OCCCC[C@@H](C)O2`, the relative growth is inactive: 0.988.
With `COC(=O)[C@H](Cc1ccccc1)N1CC2=C[C@@H](C3CC3)n3c(=O)n(C)c(=O)n3[C@H]2[C@@H]1[C@@H](O)CCn1cc(COc2ccccc2/C=C(C)/C=C/C(=O)NO)nn1`, the relative growth was inactive: 0.963.
As to `COc1cccc(NC(=O)N(C)C[C@H]2Oc3cc(C#Cc4ccncc4)ccc3S(=O)(=O)N([C@H](C)CO)C[C@@H]2C)c1`, the relative growth is inactive: 0.989.
For the molecule `C[C@@H]1CCCCO[C@@H](CN(C)Cc2ccc(Cl)c(Cl)c2)[C@@H](C)CN([C@@H](C)CO)C(=O)c2cc(NC(=O)c3ccccc3)ccc2O1`, the relative growth is inactive: 0.992.
As for `COc1ccc(S(=O)(=O)Nc2ccc3c(c2)C(=O)N([C@@H](C)CO)C[C@@H](C)[C@@H](CN(C)C(=O)Nc2ccc4c(c2)OCO4)OCCCC[C@H](C)O3)cc1`, the relative growth was inactive: 1.03.
